The test system of one test is HSkMC. Kind of test: cytotoxicity call (relative viability < 0.9). The following applies: 10 µM.
In a further test the test system is HepG2. Nature of the test: cytotoxicity call (relative viability < 0.9). The following applies: 10 µM.
For another test, the system named is S. aureus RN4220. Nature of the test: growth inhibition call (relative growth <= 0.2). The following applies: 50 µM.

Some of the results follow.

Regarding `O=C(C[C@H]1CC[C@H]2[C@@H](COC[C@@H](O)CN2C(=O)c2ccc3c(c2)OCO3)O1)NCCN1CCCCC1`, the cytotoxicity call in the test on HSkMC and in the test with HepG2 was “inactive” throughout. For the same compound, the growth inhibition call with S. aureus RN4220 is “inactive”.

Turning to `C[C@@H]1CN([C@H](C)CO)S(=O)(=O)c2ccc(-c3cncnc3)cc2O[C@H]1CN(C)C(=O)Cc1ccncc1`, the cytotoxicity call with HSkMC and in the test on HepG2 was “inactive” each time. Further, the growth inhibition call in the test on S. aureus RN4220 was “inactive”.

Turning to `C[C@@H]1CN([C@H](C)CO)C(=O)c2cccc(NC(=O)Nc3ccccc3)c2O[C@@H]1CN(C)Cc1ccc(C(F)(F)F)cc1`, the cytotoxicity call in the test with HSkMC and with HepG2 was “inactive” in each case. In the test on S. aureus RN4220, the growth inhibition call was “inactive”.

As for `COCc1cn(CC[C@@H]2CC[C@H](NC(=O)CCN3CCCCC3)[C@H](CO)O2)nn1`, the cytotoxicity call in the test with HSkMC and in the test on HepG2 was “inactive” throughout. Also, in the test on S. aureus RN4220, the growth inhibition call is “inactive”.

For the compound `C[C@@H]1CN([C@@H](C)CO)C(=O)c2cccc(NC(=O)Nc3ccccc3)c2O[C@@H]1CN(C)CC1CCCCC1`, the cytotoxicity call in the test with HSkMC and in the test on HepG2 was “inactive” in each case. Further, the growth inhibition call in the test with S. aureus RN4220 is “inactive”.

Consider `CC(C)NC(=O)N(C)C[C@H]1Oc2ccc(NC(=O)Nc3ccc4c(c3)OCO4)cc2C(=O)N([C@@H](C)CO)C[C@@H]1C`, for which the cytotoxicity call in the test on HSkMC and in the test with HepG2 was “inactive” in each case. Besides, in the test on S. aureus RN4220, the growth inhibition call was “inactive”.

As for `COc1ccc(S(=O)(=O)N(C)C[C@@H]2Oc3ncc(C#CC4(O)CCCC4)cc3C(=O)N([C@@H](C)CO)C[C@H]2C)cc1`, the cytotoxicity call in the test on HSkMC and in the test with HepG2 was “inactive” throughout. For the same compound, the growth inhibition call in the test on S. aureus RN4220 was “inactive”.

For the compound `C[C@H](CO)N1C[C@H](C)[C@H](CN(C)C(=O)C2CCCCC2)OCCCC[C@H](C)Oc2ccc(NC(=O)Nc3ccc4c(c3)OCO4)cc2C1=O`, the cytotoxicity call in the test with HSkMC and in the test on HepG2 was “inactive” throughout. Moreover, the growth inhibition call in the test with S. aureus RN4220 is “inactive”.

As for `O=C(NCCCN1CCOCC1)c1cccnc1`, the cytotoxicity call with HSkMC and in the test with HepG2 was “inactive” throughout. Moreover, the growth inhibition call in the test with S. aureus RN4220 is “inactive”.

As for `CNC(=O)Nc1ccc(-c2nc(N3C[C@H]4CC[C@@H](C3)O4)c3cnn(C4CCC5(CC4)OCCO5)c3n2)cc1`, the cytotoxicity call in the test with HSkMC is “active”. For the same compound, in the test on HepG2, the cytotoxicity call was “inactive”. Further, the growth inhibition call with S. aureus RN4220 is “inactive”.

Turning to `C[C@H](CO)N1C[C@H](C)[C@@H](CN(C)Cc2ccccc2)OCCCC[C@H](C)Oc2ccc(NC(=O)Nc3ccc(F)cc3)cc2C1=O`, in the test on HSkMC, the cytotoxicity call is “inactive”. In the test on HepG2, the cytotoxicity call was “active”. The growth inhibition call with S. aureus RN4220 is “inactive”.

Take `COCC(=O)N1C[C@@H]2OCCN(CCN3CCCC3)[C@H]2C1`: the cytotoxicity call in the test with HSkMC and in the test with HepG2 was “inactive” each time. The growth inhibition call in the test on S. aureus RN4220 was “inactive”.

As to `CCOC(=O)c1c[nH]c(CC(C)=O)nc1=O`, the cytotoxicity call in the test with HSkMC and in the test on HepG2 was “inactive” throughout. The growth inhibition call in the test with S. aureus RN4220 is “inactive”.

Consider `COc1ccc2c3c([nH]c2c1)[C@@H](CO)N(C[C@]13CN(Cc2nccs2)C1)S(=O)(=O)c1ccc(cc1)C`, for which the cytotoxicity call in the test with HSkMC and in the test on HepG2 was “inactive” each time. Further, the growth inhibition call in the test with S. aureus RN4220 was “inactive”.

`CCCC#Cc1ccc2c(c1)O[C@H](CN(C)S(=O)(=O)c1cccc(OC)c1)[C@@H](C)CN([C@H](C)CO)S2(=O)=O`: the cytotoxicity call in the test on HSkMC and in the test with HepG2 was “inactive” throughout. Further, in the test on S. aureus RN4220, the growth inhibition call is “inactive”.

Turning to `CC(C)CC#Cc1cnc2c(c1)C(=O)N([C@@H](C)CO)C[C@H](C)[C@@H](CN(C)S(=O)(=O)c1ccccc1)O2`, the cytotoxicity call with HSkMC and with HepG2 was “inactive” throughout. Also, the growth inhibition call in the test on S. aureus RN4220 was “inactive”.

As for `C[C@H](CO)N1C[C@H](C)[C@H](CN(C)Cc2ccc(C(F)(F)F)cc2)Oc2c(NC(=O)CCCCCC(=O)Nc3ccccc3N)cccc2C1=O`, the cytotoxicity call with HSkMC and in the test on HepG2 was “inactive” each time. Also, the growth inhibition call with S. aureus RN4220 was “inactive”.

Regarding `Cc1ccc(S(=O)(=O)Nc2ccc3c(c2)C(=O)N([C@@H](C)CO)C[C@H](C)[C@@H](CN(C)C(=O)Nc2c(C)noc2C)OCCCC[C@@H](C)O3)cc1`, the cytotoxicity call in the test with HSkMC and with HepG2 was “inactive” each time. The growth inhibition call in the test on S. aureus RN4220 is “inactive”.

For `CO[C@H](C(=O)N(C)C[C@@H]1OCc2ccccc2-c2c(n(C)c3ccccc23)C(=O)N([C@@H](C)CO)C[C@H]1C)c1ccccc1`, the cytotoxicity call in the test on HSkMC and with HepG2 was “inactive” each time. In addition, the growth inhibition call in the test with S. aureus RN4220 was “inactive”.

Consider `Cc1ccc(S(=O)(=O)N[C@@H](Cc2ccccc2)C(=O)NCCCn2cc(CN3C(=O)COC[C@H]3c3ccccc3)nn2)cc1`, for which the cytotoxicity call with HSkMC and with HepG2 was “inactive” each time. Besides, the growth inhibition call in the test with S. aureus RN4220 was “inactive”.

As to `NCC[C@@H]1CC[C@@H](NC(=O)C2CC2)[C@@H](CO)O1`, the cytotoxicity call in the test with HSkMC and with HepG2 was “inactive” each time. Also, the growth inhibition call in the test on S. aureus RN4220 is “inactive”.

With `O=C(C[C@H]1C=C[C@@H](NC(=O)Nc2ccc3c(c2)OCO3)[C@@H](CO)O1)NCCCN1CCOCC1`, the cytotoxicity call with HSkMC and in the test on HepG2 was “inactive” throughout. Further, the growth inhibition call in the test on S. aureus RN4220 is “inactive”.

Take `C[C@@H](CC(=O)O)n1ccnc1`: the cytotoxicity call in the test with HSkMC and in the test on HepG2 was “inactive” throughout. In the test on S. aureus RN4220, the growth inhibition call was “inactive”.

With `C[C@H](CO)N1C[C@H](C)[C@@H](CN(C)Cc2ccc(F)cc2)Oc2cc(C#CC(C)(C)O)ccc2S1(=O)=O`, the cytotoxicity call with HSkMC and in the test on HepG2 was “inactive” throughout. The growth inhibition call in the test on S. aureus RN4220 is “inactive”.

On to `Cc1ccc(S(=O)(=O)Nc2ccc3c(c2)C(=O)N([C@H](C)CO)C[C@@H](C)[C@@H](CN(C)Cc2ccc(Oc4ccccc4)cc2)O3)cc1`, for which the cytotoxicity call with HSkMC and with HepG2 was “active” each time. In addition, the growth inhibition call in the test on S. aureus RN4220 was “inactive”.

For the compound `O=C(O)c1c(O)c2c([nH]c1=O)CCCC2`, the cytotoxicity call with HSkMC and with HepG2 was “inactive” each time. For the same compound, in the test on S. aureus RN4220, the growth inhibition call was “inactive”.

In the case of `Cc1noc(C)c1NC(=O)Nc1ccc2c(c1)CC(=O)N([C@H](C)CO)C[C@H](C)[C@@H](CN(C)S(=O)(=O)c1ccccc1)O2`, the cytotoxicity call in the test with HSkMC and with HepG2 was “inactive” in each case. Also, in the test with S. aureus RN4220, the growth inhibition call is “inactive”.

Consider `CC(C)C[C@H](NC(=O)[C@H]1O[C@@H]1C(=O)O)C(=O)NCCCCNC(=N)N`, for which the cytotoxicity call in the test on HSkMC (human skeletal muscle cells) and in the test on HepG2 was “inactive” each time. Besides, in the test on S. aureus RN4220, the growth inhibition call was “inactive”.

(Values after the antibiotic and cytotoxicity screens of Wong et al. (2023).)
